Experimental data taken from the supplement of paper PMC10126150.
Sequences with one replicate were seen in a single cluster, so their values are uncertain.

Test system: ATP
Test: switch fluorescence ratio, 500 uM ATP over buffer (Cy3 cluster intensity, sum of 5 cycles each) (fold (ratio)); higher = stronger signal-on switching upon ATP binding; sequences stand for … in TCGTCGGCAGCGTCAGATGTGTATAAGAGACAGTTTTTTTTTTTTTTTTTTTTTTTTT…TC
Conditions: aptamer strand: ATP DNA aptamer (quencher-CACCTGGGGGAGTATTGCGGAGGAAGG + anchor), 100 nM annealed; ATP concentration: 500 uM; one replicate
In short: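 After annealing to 100 nM quencher-labelled ATP aptamer, Cy3-labelled switching-strand clusters on a modified Illumina MiSeq flow-cell were imaged in selection buffer. A second image followed after 15 min with 500 uM ATP at 22 °C, and five such buffer/ATP cycles were done, each separated by NaOH stripping and re-annealing. The fluorescence ratio, averaged per switch-domain sequence, is summed target-cycle over summed buffer-cycle Cy3 intensity per cluster, with clusters outside 100-1000 RFU excluded.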
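Further: ATP exposure 15 min at 22 °C before imaging.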

Sequence	switch fluorescence ratio
TAGCTCAAGC	1.05
AGTGGAGTAT	0.979
ATTGCTGATA	0.988
ATAGGCGGAC	1.01
AGTTTATGA	1
TCAAGGTCCG	1.04
AGTGGATGTA	1.01
GACGGGACAG	1.08
AAAACGCTTG	0.993
ACGTTCAAGC	1.14
TATTGGCGAC	0.972
CTATTACACT	1.04
ACGCTTGGGG	0.977
GAATCGAGCG	0.975
CTAGCATGGT	1.09
GACAAATTCG	1.03
ACCCATGGGG	1.01
GGGGTCTTT	0.986
TCATACAACG	1.1
GTTCCGCGGG	1.14
AGCCGAAGGA	1.02
ACTGCCGCCA	1.06
AACGTTGCT	0.973
GGATCGCTCC	1.01
CGGCCTCTAC	1.33
TGCCGTTGGC	0.957

Sequence	switch fluorescence ratio
GATAGTACAG	1.07
GATTGCACGG	1.07
TATTACGGCT	1.15
TTGCTGTTGA	1.04
ATAGCTGT	0.946
TTGTGGGTTC	1.03
ATTGATGAGC	1.04
CAGTATCACT	1
GGGAAGATGG	0.974
AAGCCGGACC	1.05
CGGCCGCCTT	1.01
TCTCGTTCTG	0.969
TACAGGATAG	1.04
ACTGCATAAC	1.62
CGGTTTCTAA	0.977
TTACAACCCT	1.16
ACGCCCTGCA	1.03
TGTGTGTGGC	1.05
GATTTGCGCG	0.975
AGGGTGTTAA	0.976
CTATGCTAAC	2.06
GATTAGGGGC	0.946
AGGGCGAGT	1.02
CCAAGAAGTG	1.08
AGGTGAATCA	0.996
GTGGTGCGTT	0.964

Sequence	switch fluorescence ratio
GGCGTACA	0.981
AAAATCCCGT	1.02
CAAGGAGGTA	0.995
GTTTTGAGTC	1
GTAATCCGG	1.01
CCCGCTCTTC	1.34
GCAACGTGAA	1.01
ACGTGCTAGC	1.05
TTCGAACTGT	1.01
AGCCTGGGAC	1.02
CTCAGGAATT	1.09
GAGTCAAGGC	1.08
GGAGACAACA	1
CGTGCGATCC	1.47
ACCTCAGCAT	2.41
GCTTATCCTC	1.03
ACGCGGGCAC	1.07
AGTGAAAAAA	1.02
TTATTTGGTG	1.06
ATGTGCAACT	1.02
AAGTACATCC	1.21
CAACTCAATA	1.4
GGATTGAACA	1.03
TCCGCGGCAA	1.51
AAACGCCCAT	1.07
TTGCGCCAGC	1.05

Sequence	switch fluorescence ratio
GACTGTTATT	1.06
AGAGTTGT	1.02
TGGTCAGGCC	0.994
GGAGTGGGAG	0.994
TTTCGTGACG	2.79
TTGGAACTA	0.983
TTGCGCAGGG	1.12
TGCAATGCAT	1.06
GTGTTAAAGT	1.02
TTTGTCTACA	0.974
AACGTTGTG	1
AATCTAAGA	0.954
CTAGGCCGGA	1.11
CGGTTCGCAA	2.54
AATGCTCCAT	1.02
TCAAAATATG	1.06
CAACGAAAAC	1.28
AAAAGACTTA	1.02
CCTGCGAAGT	1.68
TGGACTGGCG	1.07
TGGCCGACTA	0.982
TCAGCTTGAG	0.989
TGCAAAAGAC	1
CAGGCGGACT	0.994
TCTTGATTAC	0.991
AGGAATTCAA	1.03

Sequence	switch fluorescence ratio
TGTGTTCGGA	0.998
GAACACATTA	1.07
ATATGTCAGG	0.958
ATTGTATCAA	1.12
CTGGGCCACA	1.05
CAGGTTTCCG	0.971
AGGTTACCCA	1.04
CAAGTCTCGT	0.984
GGGCAGCGGA	0.94
CTGTATGATT	0.906
CCATACTTGT	1.02
CGCCAGGTAC	2.62
AAATTGACGA	1.05
ATAGCACAGT	1.31
GTTATTCGAG	0.995
GACAGTCACT	1.04
TGCCGTAT	0.982
CGAAGTTGGG	1.01
CAGGTTATTA	0.952
AGAGGGGCGC	1.11
TGAATAGTCC	1.09
TGGCTGGAAA	1.02
TAAATGTCGA	0.921
CGGGGTCAAG	0.986
AGGGACTTTG	0.993
CTACCAGGGG	1.41

Sequence	switch fluorescence ratio
TGCGGTGGTG	0.934
GGACTAGACG	1.02
CGACTGGTCA	0.979
GGTTGTTCTT	0.977
GGCAAAAAAC	1.03
TTATGGTCTT	1.02
ACGGTTTAGC	0.999
CGGTCTGGCG	0.965
CGTGTTCAGC	1.06
TTCTTACTA	1
GGCAATTGTG	0.972
AAGGACCTCG	1.05
CTTGGAAAAT	1.04
GTATAAAGTG	0.971
AGGAGTAT	1.02
CAAAAAAGTA	0.978
GGGGCATTGT	1
TGAATTACAG	1.03
AGTTGCAATA	1.59
CTCCTGTATG	1.04
TGGGGATTAT	1.04
ATGAGTTCGT	0.992
GGTTCGTAAC	1.01
CATGTCTTGT	0.989
ATCAGTCACG	1.01
GTCGCCTAAT	1.04

Sequence	switch fluorescence ratio
TCGGGTCGGA	0.983
ACAGGGCTG	0.966
ATGGTATGGC	0.958
GCCTGTGATG	0.997
TAAGGTGTCG	1.05
GCGTTTCCCT	1.02
TGTACTTTGC	1.08
CTCATTATGT	0.952
TAAAGGCAGT	0.969
AGTGTGGCTC	1.01
TCATTGGCGG	1.01
GGTGCACTA	1
TACTACGTGG	1.02
CAATTACGA	1.11
GTCATAAACT	1.1
TAGAAATACA	1.09
CTGGTCCTTT	0.991
TCACGTGGGG	1.03
TCCATAATCT	1.07
TGAAACGTTG	0.948
TACATCTTCT	1.05
TCAGTTCC	1.09
AGGTGTAAGC	1.02
ACTGAGGAA	1.01
TCCGGGAT	1.44
AGGGATTGTT	0.971

Sequence	switch fluorescence ratio
AGTACCAACC	1.11
CTAGCTGGCA	0.985
TTCTGTTATA	1.01
CGGATTGGGC	0.932
TGGTCATACC	0.983
AATATACTCG	1
CAATAGAGGT	1
ATCAATGCGT	0.944
GAGAATAACA	1
AAATGTGTGT	1.01
CGTCCAATTG	1.08
AGCACGCGAA	1.07
GGTTCCTTAG	1.03
GCTCGGAGTC	1.03
CGCGCTAGTA	1.02
AAGCAGGGCC	1.02
ACACAAGTTT	0.976
TAATGCAGC	1.14
GGGGTCGTGC	0.944
